# According to publication PMC7819943, “Rice protein-binding microarrays: a tool to detect cis-acting elements near promoter regions in rice”:
# Some of the results follow.
# Biological target: T1, OsWOX13 (Oryza sativa, UniProt Q5QMM3 1-267)
# T1 sequence: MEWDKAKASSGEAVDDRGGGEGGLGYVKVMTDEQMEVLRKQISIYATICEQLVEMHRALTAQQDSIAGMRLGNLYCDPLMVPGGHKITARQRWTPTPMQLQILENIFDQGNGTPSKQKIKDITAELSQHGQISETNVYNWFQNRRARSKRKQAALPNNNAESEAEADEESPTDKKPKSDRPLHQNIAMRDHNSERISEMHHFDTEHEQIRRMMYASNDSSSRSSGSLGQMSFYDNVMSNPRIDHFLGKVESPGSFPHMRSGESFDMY
# Assay: protein-binding microarray (RPBM); PBS, 2% BSA, 51.3 ng/ul salmon testes DNA, 50 uM zinc acetate, 200 nM TF, 25 C, 1 h; high values mean tight binding
# Conditions: protein: recombinant; tags: N-terminal polyhistidine and DsRed monomer fusion (pET32a); label: CyDye5-dUTP incorporated in the synthesized complementary strand; 3' TTTTT single-stranded linker to array surface; dsDNA, one strand shown
# Method in brief: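 An Axon 4000B scanner gave the binding signal as per-feature fluorescence intensity in arbitrary units. This followed washing of a custom Agilent array that had been incubated for 1 h at 25 °C with 200 nM protein in PBS, 2% BSA, salmon testes DNA and 50 µM zinc acetate. The proteins were transcription factors fused at the N-terminus to polyhistidine and DsRed, expressed in E. coli BL21-CodonPlus and purified on Ni–NTA.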
row,Sequence,binding signal
1,AGCAAATCTTAAGATTGACGAAGTCAGCACGGATGTTTCGCGGAGTCACCTAGTGCAG,23100 fluorescence intensity (a.u.)
2,ATTGACAGCATGTGGTTCATCAATATAGGTCTTTCCAACACGGAGTCACCTAGTGCAG,7370 fluorescence intensity (a.u.)
3,CCAAATGGAATCAGGCGATTGGCTGCGGTTCCTCCTCCCTCGGAGTCACCTAGTGCAG,9230 fluorescence intensity (a.u.)
4,GCATGCCAGACTCCTAATTGGATTGCTCCAACTGCCTCCACGGAGTCACCTAGTGCAG,3180 fluorescence intensity (a.u.)
5,AAATAATTATCATGTTTGTGTCCATTCATTAAGTCTATTCCGGAGTCACCTAGTGCAG,17200 fluorescence intensity (a.u.)
6,ATGGGCTTATTCAATTTATTACTAAAATCAACCATACCAACGGAGTCACCTAGTGCAG,3300 fluorescence intensity (a.u.)
7,CATAGATTGTGTGTAAATTGCGAGACGAATCTTTTAAGCCCGGAGTCACCTAGTGCAG,33300 fluorescence intensity (a.u.)
8,TAAAACTTTATTAATTATATTATGAGTTAATGGACTACCTCGGAGTCACCTAGTGCAG,23900 fluorescence intensity (a.u.)
9,AGTTAATTAATTACCAAGGACAAAGGTTACGATATTTAAACGGAGTCACCTAGTGCAG,20600 fluorescence intensity (a.u.)
10,GATTCGCTGATCAATCATTCCGTTCCCTTCGAGTGGTCTACGGAGTCACCTAGTGCAG,6160 fluorescence intensity (a.u.)
11,AATAAAATTAAATTTTGTTAGTCAAGGGAGACACTATTTTCGGAGTCACCTAGTGCAG,17300 fluorescence intensity (a.u.)
12,TCTATTATTTAATTTATTGTTAAATATACTTTTATCTATACGGAGTCACCTAGTGCAG,8300 fluorescence intensity (a.u.)
13,TTTCAATTTTATAATAATTAATCTATTCATTTCTACTCTCCGGAGTCACCTAGTGCAG,13200 fluorescence intensity (a.u.)
14,ATAAATTATGGAAAGTCAGCGCGCGTGCAGCGGCGGCTCACGGAGTCACCTAGTGCAG,4160 fluorescence intensity (a.u.)
15,AGAGATAATTGGGAAGATTAGAAAGATACGTAAAACGAGGCGGAGTCACCTAGTGCAG,38100 fluorescence intensity (a.u.)
16,ACAGACGAAATATGTAATTTGTTTTGTTATTAGTCTACGTCGGAGTCACCTAGTGCAG,9030 fluorescence intensity (a.u.)
17,ACCTATTCAATCAAATAAAAGAATTGTTTGAACCACTTTTCGGAGTCACCTAGTGCAG,10700 fluorescence intensity (a.u.)
18,ATTTTGACAGGGAAACTAAACCGGACCAAGATCATACGATCGGAGTCACCTAGTGCAG,22400 fluorescence intensity (a.u.)
19,CTCGCTAATTGTGTAGGAGGCTAATCAGAATTTAGAACCCCGGAGTCACCTAGTGCAG,20200 fluorescence intensity (a.u.)
20,CATACCTCTTTTGATTGATTGAAGATTGTGGGTTTTGTGTCGGAGTCACCTAGTGCAG,38800 fluorescence intensity (a.u.)
21,AGAAGATTGTGATTAATTGAGAAGTGGAGGTAGGCAAGAACGGAGTCACCTAGTGCAG,25800 fluorescence intensity (a.u.)

row,Sequence,binding signal
1,ACACAAATTTAATTAACCTTATATTCCCTGGGTATGAATGCGGAGTCACCTAGTGCAG,19200 fluorescence intensity (a.u.)
2,GACGAATCTTTTGAGCCTAATTACGCTATAATTTGACAATCGGAGTCACCTAGTGCAG,3220 fluorescence intensity (a.u.)
3,ATTTCCCAATTTATTTACATGTATGCACTGACACCACAAGCGGAGTCACCTAGTGCAG,6650 fluorescence intensity (a.u.)
4,CGGCTTAATTAGTCTCAAAAGATTCGTCTCGCGGTTTACACGGAGTCACCTAGTGCAG,14200 fluorescence intensity (a.u.)
5,GGCTAACATGTCTGAAATTGCCGAAGTCACAGAGTATGTACGGAGTCACCTAGTGCAG,3270 fluorescence intensity (a.u.)
6,AAATCACTATTAAATATAAATTGCTTGATATGTCAAGTACCGGAGTCACCTAGTGCAG,4550 fluorescence intensity (a.u.)
7,CAGAATTTGACAATTGATCAACTAAGCAAATCCTATCATCCGGAGTCACCTAGTGCAG,14000 fluorescence intensity (a.u.)
8,TCTAATTTTAGCGTAAACTAAACACACCCATAGTTTAGGCCGGAGTCACCTAGTGCAG,12400 fluorescence intensity (a.u.)
9,ACAACGATCTGTTTCTATCAATTTCTCAGATGGGACCTGACGGAGTCACCTAGTGCAG,3350 fluorescence intensity (a.u.)
10,AGGACGATATTGATTAGTACTCAACGTGACAATTGATGCACGGAGTCACCTAGTGCAG,27100 fluorescence intensity (a.u.)
11,AGAATTAGCTGTGATTAACCGGTTGCATATGACATGAGGTCGGAGTCACCTAGTGCAG,12100 fluorescence intensity (a.u.)
12,TACAAATGTAACTATAGTATAATTACACTGTAATTATATACGGAGTCACCTAGTGCAG,7270 fluorescence intensity (a.u.)
13,ACTTATGATGAGTTATTAATGACAAACTCATCATCAGTTCCGGAGTCACCTAGTGCAG,11800 fluorescence intensity (a.u.)
14,TCATGAACTGATAATTTGGATTAGTTCAAAATTTCTTGAGCGGAGTCACCTAGTGCAG,9040 fluorescence intensity (a.u.)
15,TCTCGATTTGATTTGACCTGGATGCGCGCGAACGGAGACGCGGAGTCACCTAGTGCAG,20700 fluorescence intensity (a.u.)
16,TAGCTATCATGGAAATCATATAATCTATCAATTCGAGCGACGGAGTCACCTAGTGCAG,4540 fluorescence intensity (a.u.)
17,CATCCATGATTACCCATAAAGTGCTGCAGTAATCCACATGCGGAGTCACCTAGTGCAG,12400 fluorescence intensity (a.u.)
18,ATCCCTAATTCCCTATTAACAACAACTAACCAGCTAAAATCGGAGTCACCTAGTGCAG,4040 fluorescence intensity (a.u.)
19,AAGCTAACTGACGAGGAGGTGGATGAGATGATCCGTGAGGCGGAGTCACCTAGTGCAG,7000 fluorescence intensity (a.u.)
20,CTTAATTGGGACCCTCTCCTATCTGGATCATTCAACCAAACGGAGTCACCTAGTGCAG,31100 fluorescence intensity (a.u.)
21,ATATCTAATAGATTGTCCAGCAGAAGTCCATGCTCCACCGCGGAGTCACCTAGTGCAG,17600 fluorescence intensity (a.u.)
